Data from the supplement of paper PMC10986608.
This is one part of the list. Most values come without repeats; read them as rough.

test system: Candida albicans DPL-15; assay: growth (OD600) after compound treatment (apparently relative to screen median) (relative growth (fraction; screen median 1.02)); DPL-15 is a caspofungin-resistant clinical isolate; higher = more fungal growth (less antifungal activity); conditions: 25 µM; RPMI 1640; 48 h; 30 °C

SMILES | growth
COc1ccc2c(c1)O[C@@H](c1cccc(C(F)(F)F)c1)[C@H](O)C2=O | 0.714
C=CCN1C(=O)C2=C(C(C)=NCCN2)C1c1cccc(C(F)(F)F)c1 (stereo not given) | 1.03
COc1cc(CC=C(C)C)c2c(=O)c3cc(F)c(F)cc3oc2c1O | 1.14
C[C@@H]1/C=C/CC(=O)OCCCCC(=O)N[C@@H]1c1cccc(Br)c1 | 1.08
CC1=CC[C@@H](COc2ccccc2)O[C@@]2(C1)C(=O)Nc1cccc(Br)c12 | 1.11
COC(=O)N[C@H](CC(C)=O)c1ccccc1 | 1.02
CO[C@@H]1[C@H](O)CC[C@]2(O)CN(c3ccc4ncoc4c3)[C@](C)([C@H](O)CC=C(C)C)[C@@H]12 | 0.911
COc1cccc(CN(C)C[C@@H]2CCCN(CCc3ccccc3C)C2)c1 | 0.994
NS(=O)(=O)N1CCOCC1 | 1.01
COC(=O)c1[nH]c2ccccc2c1[C@]12CCN(C(=O)Cc3c(F)cccc3F)[C@H]1Nc1ccccc12 | 1.05
C=C(C)[C@@H]1[C@H](c2cc(OC)c(O)c3oc4c(c(=O)c23)CCCC4)C=C(C)C[C@H]1c1cc(OC)c(O)c2oc3c(c(=O)c12)CCCC3 | 1.16
CC(=O)C1=C2C=CCCN2C(=O)NC1c1cccc(F)c1F (stereo not given) | 1.01
COc1ccc([C@@]23Oc4cc(OC)c(F)c(OC)c4[C@]2(O)c2nc4n(c(=O)c2[C@H]3c2ccccc2)CCC4)cc1 | 1.15
CO[C@@H]1[C@H](O)CC[C@]2(O)CN(c3ccc(Oc4ccccc4)cc3)[C@@H](CC=C(C)C)[C@](C)(O)[C@@H]12 | 0.794
COc1ccc(N2C(=O)c3[nH]nc(CC(C)C)c3C2c2ccccc2Br)cn1 (stereo not given) | 1.03
COC(=O)c1cc2cc3c(cc2c(-c2ccc(OC)cc2)c1C(=O)OC)OCO3 | 0.944
COc1ccc([C@@]23Oc4cc(OC)cc(OC)c4[C@]2(O)c2nc(C4CC4)[nH]c(=O)c2[C@H]3c2ccccc2)cc1 | 1.02
CCOC(=O)CN1C(=O)N[C@@H](c2cccc(F)c2)C(C(=O)OC)=C1C | 0.967
CC(C)Cc1nn(Cc2ccccc2)c2c1C(c1ccccc1)NC2=O (stereo not given) | 1.01
C=CCC1=C2OC(C)(C)[C@@H](CC=C)C[C@]23C[C@@H](CC=C)C(C)(C)[C@](C(=O)c2ccccc2)(C1=O)C3=O | 0.991
CC(=O)OC[C@H]1O[C@H](c2ccc(F)cc2)C=C[C@@H]1OC(C)=O | 0.925
c1ccc([C@H]2c3cc4c(cc3O[C@H]3c5ccccc5C[C@@H]23)OCO4)cc1 | 1.13
Cc1n[nH]c2c1COC[C@H](c1ccccc1)NC(=O)CC1(CCCCC1)CNC(=O)c1cccc-2c1 | 1.02
CC(C)Cc1n[nH]c2c1C(c1ccc(F)cc1)N(Cc1ccccc1)C2=O (stereo not given) | 1.02
CO[C@@H]1[C@H](O)CC[C@]2(O)CN([C@@H](C)c3ccccc3)[C@@H](CC=C(C)C)[C@](C)(O)[C@@H]12 | 1.14
Cn1c(-c2ccc(Br)cc2)c(O)c(=O)c2c(F)cccc21 | active: 0.0898
CCCCCNS(=O)(=O)OCCCCC | 0.962

SMILES | growth
CC(C)c1c2c(nn1-c1ccc(F)cc1)C(=O)NC2c1ccccc1 (stereo not given) | 0.967
CC(C)C1=C[C@H]2[C@@H]3[C@@H](C(C(C)C)=CC(=O)[C@]3(C)O)[C@@H]1C(=O)[C@]2(C)O | 1.12
Cc1ccc(C2C3=C(NCCN=C3C(C)C)C(=O)N2Cc2ccccc2)cc1 (stereo not given) | 1.06
COC(=O)C1=C(C)N(CC(C)C)C(=S)NC1c1cccc(F)c1 (stereo not given) | 0.877
Cn1c(-c2ccc(Br)cc2)c(O)c(=O)c2ccccc21 | 0.819
Cc1cc(C)c2c(c1)N=C1CCCCC12Cc1occc(=O)c1OS(C)(=O)=O (stereo not given) | 0.917
Cc1ccc(S(=O)(=O)Oc2c(C[C@@]3(C)C(c4ccccc4)=Nc4ccccc43)occc2=O)cc1 | 0.925
CC(=O)OC[C@H]1O[C@H](C#Cc2cccc(C)c2)C=C[C@H]1OC(C)=O | 0.976
C=CCC1=C(OC)[C@@]2(CC=C)C[C@H](Cc3ccccc3)[C@@](C(=O)c3ccccc3)(C1=O)C2=O | 0.951
COCCN1C(=O)[C@H]2C[C@@]13O[C@H](C1CCCCC1)N=C3C[C@@H]1c3ccccc3C[C@]21C | 0.96
COc1ccc(N2C(=O)c3[nH]nc(-c4ccc5c(c4)CCC5)c3C2c2ccc(F)cc2)cc1 (stereo not given) | 0.941
C#CCN(C)C(=O)c1nnc(C(=O)OC)c2c1c1ccccc1n2S(=O)(=O)c1ccc(C)cc1 | 1.03
COC(=O)C1=C(C)N(C)C(NCCN2CCOCC2)=NC1c1ccc(Cl)cc1 (stereo not given) | 1.11
COc1ccc(N2C(=O)C3=C(C(C(C)C)=NCCN3)C2c2ccc(Br)cc2)cc1 (stereo not given) | 0.901
CC(C)C1=NCCN(C)C2=C1C(c1ccc3c(c1)OCO3)NC2=O (stereo not given) | 0.918
CS(=O)(=O)Oc1c(C[C@@]23COc4ccccc4C2=Nc2ccccc23)occc1=O | 1.08
COc1ccc(OC)c(C(=O)c2c(O)cc(O)cc2OC)c1Br | 1.09
COC(=O)N[C@@H]1[C@@H](C)[C@H](OC)[C@]23C=CC=C[C@H]2[C@]13CCN1CCCCC1 | 1.04
O=C1Nc2cc(F)ccc2C1(c1cc2c(cc1O)OCO2)c1cc2c(cc1O)OCO2 | 1.16
COc1cc(O)cc2c1[C@]1(O)[C@H](O)[C@H](C(=O)N(C)OC)[C@@H](c3ccccc3)[C@]1(c1ccc(Br)cc1)O2 | 0.87
COc1ccc(O)c(C(=O)c2c(O)cc(C)cc2O)c1C | 1.03
CCCCS(=O)(=O)N1CCCc2nc(-c3ccc(OC)cc3)ccc21 | 1.01
CCNC(=O)OC[C@H]1O[C@H](C#Cc2ccc(C(C)(C)C)cc2)C=C[C@H]1OC(C)=O | 1.06
CC1=C[C@@H](COc2cccc(F)c2)O[C@@]2(C1)C(=O)N(C)c1ccccc12 | 0.946
CCO[C@H]1CCN(C(=O)c2c(O)cc(O)cc2Nc2ccnn2C)C1 | 1.04
CC1(C)CNC(=O)C(O)CNC(=O)c2cccc(c2)-c2cc(n[nH]2)C1 (stereo not given) | 1.14
C=CCCCOS(=O)(=O)NC(C)(C)C | 1.06

SMILES | growth
COCCN1C(=S)NC(c2ccccc2)C(C(=O)OC)=C1C (stereo not given) | 1.28
COc1cc(OC)cc([C@@H]2/C(=C\c3cc(C(C)(C)C)c(O)c(C(C)(C)C)c3)c3cc(OC)cc(OC)c3[C@H]2c2cc(C(C)(C)C)c(O)c(C(C)(C)C)c2)c1 | 1.21
O=c1c(OCc2ccoc2)c(-c2ccccc2)oc2ccccc12 | 0.951
CCOC(=O)C1CCCN(CCc2ccccc2)C1 (stereo not given) | 0.986
CC(C)[C@@H]1N=C2C[C@H](c3ccccc3)[C@@H](C)[C@@H]3C[C@@]2(O1)N(Cc1cccs1)C3=O | 0.906
C=CCN1C(=O)C2=C(C(C)=NCCN2)C1c1ccc(F)cc1 (stereo not given) | 0.956
COC(=O)C1=C(C)N(Cc2ccccc2)C(=S)NC1c1ccccc1 (stereo not given) | 0.918
CC(C)Cc1n[nH]c2c1C(c1cccc(Cl)c1)N(c1ccc(C(C)(C)C)cc1)C2=O (stereo not given) | 1.09
CCc1ccccc1-n1nc(CC(C)C)c2c1C(=O)NC2c1ccccc1 (stereo not given) | 0.943
CC(C)C1=NCCNC2=C1C(c1cccc(C(F)(F)F)c1)N(Cc1ccccc1)C2=O (stereo not given) | 1.07
Cc1cccc(CO[C@H]2CC=C(c3ccccc3)O[C@@H]2CO)c1 | 0.846
COC(=O)C/C=C/[C@H](C)[C@@H](NC(=O)[C@H](Cc1ccc(O)cc1)NC(=O)OC(C)(C)C)c1ccccc1 | 1.12
COc1cc(O)c(C(=O)[C@@H]2CC=C(CCC=C(C)C)C[C@H]2c2ccccc2)c(O)c1 | 0.979
COc1ccc(-c2ccc3c(n2)CCCN3S(=O)(=O)c2ccc(F)cc2)cc1 | 0.875
C=CCNC1=NC(c2cccc(Cl)c2)C(C(=O)OC)=C(C)N1C (stereo not given) | 0.873
CC(=O)C1=C2C=CCCN2C(=O)NC1c1ccccc1F (stereo not given) | 1.02
Cn1cc(Nc2cc(O)cc(O)c2C(=O)N2CC[C@@H](F)C2)cn1 | 1.06
COc1cc(F)c(C2NC(=O)N3CCC=CC3=C2C(C)=O)cc1F (stereo not given) | 1.01
COc1ccc(S(=O)(=O)N[C@@H]2c3cc(OC)ccc3[C@H](c3ccccc3)[C@H]2C)cc1 | 0.988
C[C@H]1/C=C/CC(=O)OC[C@@H]2OC(C)(C)O[C@@H]2C(=O)N[C@H]1c1ccccc1 | 1.09
CO[C@@H]1CCN(C(=O)c2c(O)cc(O)cc2Nc2cc(C)nn2C)C1 | 1.06
CC(C)c1nn(-c2ccc(OC(F)(F)F)cc2)c2c1C(c1ccc3c(c1)OCO3)NC2=O (stereo not given) | 0.927
C=CC[C@]12C[C@@]3(O[C@H](C4CCNCC4)N=C3C[C@H](c3ccc(OC)cc3)[C@H]1C)N(Cc1ccccc1)C2=O | 0.785
COc1cccc([C@@H](NC(=O)C(F)(F)F)[C@@H]2CCCC=C2c2ccccc2)c1 | 1.01
COC(=O)C/C=C/[C@H](C)[C@@H](NC(=O)[C@@H](Cc1c[nH]c2ccccc12)NC(=O)OC(C)(C)C)c1ccccc1 | 0.905
COC(=O)C1=C(C)N(CCc2cccs2)C(NCc2cccc(C(F)(F)F)c2)=NC1c1ccccc1 (stereo not given) | 1.14
